Reference: the supplement of paper PMC4604168 (melanoma cell lines)
This is one part of the list. Most values come without repeats; read them as rough.

System: A2058
Assay: cell count relative to DMSO control; melanoma cells; higher = more viable cells
Conditions: library dose: standard library concentration; 72 h
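Also: cells treated in 1,536-well plates, then fixed and DAPI-stained, with nuclei counted from automated high-throughput microscope images.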

| SMILES | cell count |
| --- | --- |
| NC(=O)c1ccc(N(C(N)=O)c2c(F)cccc2F)nc1-c1ccc(F)cc1F + Cn1c(=O)n(-c2ccc(C(C)(C)C#N)cc2)c2c3cc(-c4cnc5ccccc5c4)ccc3ncc21 [NVP-BEZ235] (first compound 2 µM, partner dose 0.02 µM) | 60.2% |
| CC(C)(C)c1cnc(CSc2cnc(NC(=O)C3CCNCC3)s2)o1 + N#Cc1c(O)c2c(-c3ccc(-c4ccccc4O)cc3)csc2[nH]c1=O [A769662] (first compound 0.05 µM, partner dose 10 µM) | 94% |
| CCCCCCCCc1ccc(CCC(N)(CO)CO)cc1 [fingolimod] + Nc1ncn([C@H]2C[C@H](O)[C@@H](CO)O2)c(=O)n1 [decitabine] (first compound 10 µM, partner dose 0.5 µM) | 7.8% |
| CN(NC(=O)CC(=O)NN(C)C(=S)c1ccccc1)C(=S)c1ccccc1 + COc1cc2ncnc(Nc3ccc(Oc4ccccc4)cc3)c2cc1OC [SrcI1] (first compound 0.03 µM, partner dose 10 µM) | 4.3% |
| Cc1ccc(NC(=O)c2cccc(N(C)C)c2)cc1NC(=O)c1ccc(O)cc1 + COc1cc2ncnc(Nc3ccc(Oc4ccccc4)cc3)c2cc1OC [SrcI1] (first compound 10 µM, partner dose 10 µM) | 87.4% |
| CCCCCCCCc1ccc(CCC(N)(CO)CO)cc1 [fingolimod] + OCc1c[nH]c2ccccc12 [Indole-3-carbinol] (first compound 10 µM, partner dose 4 µM) | 4.78% |
| NC(=O)c1ccc(N(C(N)=O)c2c(F)cccc2F)nc1-c1ccc(F)cc1F + C[C@]1(c2nc3c(C(N)=O)cccc3[nH]2)CCCN1 [Veliparib] (first compound 2 µM, partner dose 7 µM) | 74.2% |
| CCCCCCCCc1ccc(CCC(N)(CO)CO)cc1 [fingolimod] + O=C(O)[C@@H]1[O][Sb](=[O])([O][Sb]2(=[O])[O][C@H]([C@H](O)CO)[C@H](O)[C@H](C(=O)O)[O]2)[O][C@H]([C@H](O)CO)[C@@H]1O [stibogluconate] (first compound 10 µM, partner dose 10 µM) | 23.9% |
| CC(C)(C)c1cnc(CSc2cnc(NC(=O)C3CCNCC3)s2)o1 + Oc1cc(-c2nc(-c3ccccc3)[nH]c2-c2ccncc2)ccc1Cl [L779450] (first compound 0.05 µM, partner dose 1 µM) | 93.7% |
| NC(=O)c1ccc(N(C(N)=O)c2c(F)cccc2F)nc1-c1ccc(F)cc1F + Nc1ccn([C@@H]2O[C@H](CO)[C@@H](O)C2(F)F)c(=O)n1 [gemcitabine] (first compound 2 µM, partner dose 0.002 µM) | 58.7% |
| CC(C)(C)c1cnc(CSc2cnc(NC(=O)C3CCNCC3)s2)o1 + COc1cc2c(Oc3ccc4[nH]c(C)cc4c3F)ncnc2cc1OCCCN1CCCC1 [cediranib] (first compound 0.05 µM, partner dose 2 µM) | 59.9% |
| NC(=O)c1ccc(N(C(N)=O)c2c(F)cccc2F)nc1-c1ccc(F)cc1F + CCc1ccc(CCOc2ccc(CC3SC(=O)NC3=O)cc2)nc1 [pioglitazone] (first compound 2 µM, partner dose 10 µM) | 111% |
| Cc1ccc(NC(=O)c2cccc(N(C)C)c2)cc1NC(=O)c1ccc(O)cc1 + CN(C)S(=O)(=O)c1ccc2c(c1)/C(=C/c1cc3c([nH]1)CCCC3)C(=O)N2 [SU6656] (first compound 10 µM, partner dose 2 µM) | 89.7% |
| COc1cc2c(Oc3ccc4[nH]c(C)cc4c3F)ncnc2cc1OCCCN1CCCC1 [cediranib] + Oc1cc(-c2nc(-c3ccccc3)[nH]c2-c2ccncc2)ccc1Cl [L779450] (first compound 2 µM, partner dose 1 µM) | 84.7% |
| COc1cc2c(Oc3ccc4[nH]c(C)cc4c3F)ncnc2cc1OCCCN1CCCC1 [cediranib] + O=C(Nc1ccccc1)c1cc([N+](=O)[O-])ccc1Cl [GW9662] (first compound 2 µM, partner dose 10 µM) | 89.5% |
| CC(C)(C)c1cnc(CSc2cnc(NC(=O)C3CCNCC3)s2)o1 + CCCCCCCCCCCC1=C(O)C(=O)C=C(O)C1=O [Embelin] (first compound 0.05 µM, partner dose 6 µM) | 92% |
| Cc1ccc(NC(=O)c2cccc(N(C)C)c2)cc1NC(=O)c1ccc(O)cc1 + Cc1cc([N+](=O)[O-])ccc1NS(=O)(=O)c1cc(Cl)ccc1Cl [FH535] (first compound 10 µM, partner dose 5 µM) | 73.6% |

| SMILES | cell count |
| --- | --- |
| CCCCCCCCc1ccc(CCC(N)(CO)CO)cc1 [fingolimod] + CO[C@H]1C[C@@H]2CC[C@@H](C)[C@@](O)(O2)C(=O)C(=O)N2CCCC[C@H]2C(=O)O[C@H]([C@H](C)C[C@@H]2CC[C@@H](OCCO)[C@H](OC)C2)CC(=O)[C@H](C)/C=C(\C)[C@@H](O)[C@@H](OC)C(=O)[C@H](C)C[C@H](C)/C=C/C=C/C=C/1C [everolimus] (first compound 10 µM, partner dose 0.1 µM) | 3.81% |
| NC(=O)c1ccc(N(C(N)=O)c2c(F)cccc2F)nc1-c1ccc(F)cc1F + CN(C)S(=O)(=O)c1ccc2c(c1)/C(=C/c1cc3c([nH]1)CCCC3)C(=O)N2 [SU6656] (first compound 2 µM, partner dose 2 µM) | 76.2% |
| NC(=O)c1ccc(N(C(N)=O)c2c(F)cccc2F)nc1-c1ccc(F)cc1F + C[C@@H]1CCN(C(=O)CC#N)C[C@@H]1N(C)c1ncnc2[nH]ccc12 [CP690550] (first compound 2 µM, partner dose 5 µM) | 105% |
| CC(C)(C)c1cnc(CSc2cnc(NC(=O)C3CCNCC3)s2)o1 + O=C(O)c1ccc(-c2c[nH]c3ncc(-c4ccccc4)cc23)cc1C1CCCC1 [GSK650394] (first compound 0.05 µM, partner dose 0.8 µM) | 81.1% |
| CC(C)(C)c1cnc(CSc2cnc(NC(=O)C3CCNCC3)s2)o1 + O=C(Nc1cccc(Cl)c1)Nc1ncc(CCNc2ncnc3ccsc23)s1 [SNS314] (first compound 0.05 µM, partner dose 0.004 µM) | 90.3% |
| NC(=O)c1ccc(N(C(N)=O)c2c(F)cccc2F)nc1-c1ccc(F)cc1F + Cc1cc([N+](=O)[O-])ccc1NS(=O)(=O)c1cc(Cl)ccc1Cl [FH535] (first compound 2 µM, partner dose 5 µM) | 77.7% |
| CCc1ccc(CCOc2ccc(CC3SC(=O)NC3=O)cc2)nc1 (stereo not drawn) [pioglitazone] + O=S(=O)(c1ccccc1)N(CC(F)(F)F)c1ccc(C(O)(C(F)(F)F)C(F)(F)F)cc1 [T0901317] (first compound 10 µM, partner dose 7 µM) | 95.4% |
| CCCCCCCCc1ccc(CCC(N)(CO)CO)cc1 [fingolimod] + Cn1cncc1[C@@](N)(c1ccc(Cl)cc1)c1ccc2c(c1)c(-c1cccc(Cl)c1)cc(=O)n2C [tipifarnib] (first compound 10 µM, partner dose 0.05 µM) | 3.23% |
| NC(=O)c1ccc(N(C(N)=O)c2c(F)cccc2F)nc1-c1ccc(F)cc1F + CC(=O)O[C@@]12CO[C@@H]1C[C@H](O)[C@@]1(C)C(=O)[C@H](O)C3=C(C)[C@@H](OC(=O)[C@H](O)[C@@H](NC(=O)OC(C)(C)C)c4ccccc4)C[C@@](O)([C@@H](OC(=O)c4ccccc4)[C@H]21)C3(C)C [Docetaxel] (first compound 2 µM, partner dose 0.0005 µM) | 9.8% |
| CCCCCCCCc1ccc(CCC(N)(CO)CO)cc1 [fingolimod] + CN(C)S(=O)(=O)c1ccc2c(c1)/C(=C/c1cc3c([nH]1)CCCC3)C(=O)N2 [SU6656] (first compound 10 µM, partner dose 2 µM) | 2.68% |
| Cc1ccc(NC(=O)c2cccc(N(C)C)c2)cc1NC(=O)c1ccc(O)cc1 + c1cc(-c2cnn3cc(-c4ccc(OCCN5CCCCC5)cc4)cnc23)ccn1 [Dorsomorphin] (first compound 10 µM, partner dose 2 µM) | 95.4% |
| CC(C)(C)c1cnc(CSc2cnc(NC(=O)C3CCNCC3)s2)o1 + Cn1cncc1[C@@](N)(c1ccc(Cl)cc1)c1ccc2c(c1)c(-c1cccc(Cl)c1)cc(=O)n2C [tipifarnib] (first compound 0.05 µM, partner dose 0.05 µM) | 47% |
| NC(=O)c1ccc(N(C(N)=O)c2c(F)cccc2F)nc1-c1ccc(F)cc1F + Nc1ncn([C@H]2C[C@H](O)[C@@H](CO)O2)c(=O)n1 [decitabine] (first compound 2 µM, partner dose 0.5 µM) | 63.4% |
| Cc1ccc(NC(=O)c2cccc(N(C)C)c2)cc1NC(=O)c1ccc(O)cc1 + CC(C)CCN1c2nc(Nc3cc(F)c(O)c(F)c3)ncc2N(C)C(=O)C1C [BID1870] (first compound 10 µM, partner dose 1 µM) | 87.1% |
| CCCCCCCCc1ccc(CCC(N)(CO)CO)cc1 [fingolimod] + C[C@]1(c2nc3c(C(N)=O)cccc3[nH]2)CCCN1 [Veliparib] (first compound 10 µM, partner dose 7 µM) | 6.47% |
| CN(NC(=O)CC(=O)NN(C)C(=S)c1ccccc1)C(=S)c1ccccc1 + O=S(=O)(c1ccccc1)N(CC(F)(F)F)c1ccc(C(O)(C(F)(F)F)C(F)(F)F)cc1 [T0901317] (first compound 0.03 µM, partner dose 7 µM) | 14.8% |
